Experimental data as given in ChEMBL document CHEMBL4689842, “EUbOPEN Chemogenomics Library wave 1” (2021).
A number of entries come with more than one value. The other results are left out here. There may be further records. Values that stand side by side are repeats (runs, samples, wells, individuals or studies).

Columns and labels:
Format in all cases: toxicity, cell-based
Fibroblast = test: Multiplex assay against human fibroblast; settings: 10 µM, compound concentration 10 uM
Procedure, shortened: (§1)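 Phenotypes for tubulin, mitochondrial mass and membrane permeability are expressed as per cents of healthy-nucleus cells. Cells were stained live at seeding with Hoechst33342, BioTracker Green Microtubule Cytoskeleton Dye, MitoTracker Red and Annexin V Alexa Fluor 680, then imaged after compound addition on a CQ1 microscope at 37°C and 5% CO2. Machine-learning gating in CellPathfinder separated Hoechst high-intensity objects from normal cells, divided normal cells by nuclear state (healthy, pyknosed, fragmented) and divided pyknosed cells into mitotic or apoptotic.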

HEK-293T = test: Multiplex assay against HEK293T; settings: human, 10 µM, compound concentration 10 uM; procedure, shortened: as §1;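 as to Population Tubulin-Different-Phenotype (%): share of the cells with healthy nuclei that show this phenotype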
U2OS = test: Multiplex assay against U2OS; settings: human, 10 µM, compound concentration 10 uM; procedure, shortened: as §1

Question: Which “Population Hoechst High Intensity Objects (%)” value (Fibroblast; 12 h, replicate 1) does the source give for `CNCc1ccccc1-c1csc([C@@H](C)Nc2nc(C)nc3cc(OC)c(OC)cc23)c1` [BAY-293] here?
Answer: Its value is 41% and 12%.

Question: What about the “Population Mitochondria Different-Phenotype (%)” value (Fibroblast; 12 h, replicate 1) of the same molecule?
Answer: Its value is 2% and 33%.

Question: What about the “Population Tubulin-Different-Phenotype (%)” value (Fibroblast; 12 h, replicate 1) of the same molecule?
Answer: The value was 17% and 75%.

Question: What about the “Population Mitochondria Different-Phenotype (%)” value (Fibroblast; 12 h, replicate 2) of the same molecule?
Answer: The value was 50% and 13%.

Question: What about the “Population Healthy Nuclei (%)” value (Fibroblast; 24 h, replicate 1) of the same molecule?
Answer: The value was 7% and 48%.

Question: And the “Population Mitochondria Different-Phenotype (%)” value (Fibroblast; 24 h, replicate 1)?
Answer: The value was 22% and 3%.

Question: What about the “Population Mitotic Cells (%)” value (Fibroblast; 24 h, replicate 1) of the same molecule?
Answer: The value was 10% and 61%.

Question: And the “Population Healthy Nuclei (%)” value (Fibroblast; 24 h, replicate 2)?
Answer: Its value is 37% and 12%.

Question: And the “Population Membrane Permeable-Phenotype (%)” value (Fibroblast; 24 h, replicate 2)?
Answer: Its value is 2% and 60%.

Question: What about the “Population Mitochondria Different-Phenotype (%)” value (Fibroblast; 24 h, replicate 2) of the same molecule?
Answer: The value was 11% and 40%.

Question: And the “Population Mitotic Cells (%)” value (Fibroblast; 24 h, replicate 2)?
Answer: Its value is 33% and 9%.

Question: And the “Population Apoptotic (%)” value (HEK-293T; 12 h, replicate 2)?
Answer: The value was 8% and 34%.

Question: What about the “Population Mitochondria Different-Phenotype (%)” value (HEK-293T; 12 h, replicate 2) of the same molecule?
Answer: The value was 24% and 82%.

Question: And the “Population Healthy Nuclei (%)” value (HEK-293T; 24 h, replicate 1)?
Answer: The value was 14% and 64%.

Question: What about the “Population Pyknosed Nuclei (%)” value (HEK-293T; 24 h, replicate 1) of the same molecule?
Answer: Its value is 56% and 17%.

Question: And the “Population Apoptotic (%)” value (HEK-293T; 24 h, replicate 2)?
Answer: The value was 46% and 5%.

Question: What about the “Population Hoechst High Intensity Objects (%)” value (HEK-293T; 24 h, replicate 2) of the same molecule?
Answer: Its value is 10% and 3%.

Question: And the “Population Membrane Permeable-Phenotype (%)” value (HEK-293T; 24 h, replicate 2)?
Answer: The value was 2% and 26%.

Question: And the “Population Mitochondria Different-Phenotype (%)” value (HEK-293T; 24 h, replicate 2)?
Answer: The value was 91% and 8%.

Question: What about the “Population Pyknosed Nuclei (%)” value (HEK-293T; 24 h, replicate 2) of the same molecule?
Answer: The value was 48% and 4%.

Question: And the “Population Fragmented Nuclei (%)” value (U2OS; 12 h, replicate 1)?
Answer: Its value is 22% and 7%.

Question: What about the “Population Pyknosed Nuclei (%)” value (U2OS; 12 h, replicate 1) of the same molecule?
Answer: The value was 41% and 12%.

Question: And the “Population Healthy Nuclei (%)” value (U2OS; 24 h, replicate 1)?
Answer: The value was 14% and 65%.

Question: What does the source list for `CN(c1ccccc1CNc1nc(Nc2ccc3c(c2)CC(=O)N3)ncc1C(F)(F)F)S(C)(=O)=O`?
Answer: Population Membrane Permeable-Phenotype (%) (Fibroblast; 12 h, replicate 1): 51% and 8%; Population Mitochondria Different-Phenotype (%) (Fibroblast; 12 h, replicate 1): 9% and 2%; Population Tubulin-Different-Phenotype (%) (Fibroblast; 12 h, replicate 1): 62% and 11%; Population Apoptotic (%) (Fibroblast; 12 h, replicate 2): 0% and 35%; Population Membrane Permeable-Phenotype (%) (Fibroblast; 12 h, replicate 2): 0% and 50%; Population Pyknosed Nuclei (%) (Fibroblast; 12 h, replicate 2): 6% and 25%; Population Tubulin-Different-Phenotype (%) (Fibroblast; 12 h, replicate 2): 10% and 64%; Population Mitochondria Different-Phenotype (%) (Fibroblast; 24 h, replicate 1): 16% and 1%; Population Mitotic Cells (%) (Fibroblast; 24 h, replicate 1): 29% and 8%; Population Tubulin-Different-Phenotype (%) (Fibroblast; 24 h, replicate 1): 69% and 5%; Population Apoptotic (%) (Fibroblast; 24 h, replicate 2): 25% and 83%; Population Mitotic Cells (%) (Fibroblast; 24 h, replicate 2): 75% and 16%; Population Tubulin-Different-Phenotype (%) (Fibroblast; 24 h, replicate 2): 13% and 60%; Population Mitochondria Different-Phenotype (%) (HEK-293T; 12 h, replicate 1): 13% and 3%; Population Tubulin-Different-Phenotype (%) (HEK-293T; 12 h, replicate 1): 27% and 3%; Population Hoechst High Intensity Objects (%) (HEK-293T; 12 h, replicate 2): 7% and 2%; Population Tubulin-Different-Phenotype (%) (HEK-293T; 12 h, replicate 2): 76% and 11%; Population Mitochondria Different-Phenotype (%) (HEK-293T; 24 h, replicate 1): 18% and 4%; Population Pyknosed Nuclei (%) (HEK-293T; 24 h, replicate 1): 35% and 5%; Population Tubulin-Different-Phenotype (%) (HEK-293T; 24 h, replicate 1): 19% and 6%; Population Fragmented Nuclei (%) (HEK-293T; 24 h, replicate 2): 2% and 19%; Population Pyknosed Nuclei (%) (HEK-293T; 24 h, replicate 2): 13% and 2%; Population Tubulin-Different-Phenotype (%) (HEK-293T; 24 h, replicate 2): 65% and 11%; Population Fragmented Nuclei (%) (U2OS; 12 h, replicate 1): 30% and 6%; Population Membrane Permeable-Phenotype (%) (U2OS; 12 h, replicate 1): 46% and 10%; Population Pyknosed Nuclei (%) (U2OS; 12 h, replicate 1): 24% and 3%; Population Mitotic Cells (%) (U2OS; 12 h, replicate 2): 8% and 66%; Population Pyknosed Nuclei (%) (U2OS; 12 h, replicate 2): 16% and 2%; Population Apoptotic (%) (U2OS; 24 h, replicate 1): 81% and 25%; Population Hoechst High Intensity Objects (%) (U2OS; 24 h, replicate 1): 18% and 4%; Population Membrane Permeable-Phenotype (%) (U2OS; 24 h, replicate 1): 55% and 16%; Population Mitotic Cells (%) (U2OS; 24 h, replicate 1): 18% and 75%; Population Pyknosed Nuclei (%) (U2OS; 24 h, replicate 1): 27% and 6%; Population Membrane Permeable-Phenotype (%) (U2OS; 24 h, replicate 2): 31% and 9%; Population Pyknosed Nuclei (%) (U2OS; 24 h, replicate 2): 33% and 10%
